Assay results reported in paper PMC3313914.
Results are given in words; binding and its absence hold for the method and conditions named. In cells and extracts the contact can be indirect. Some entries that bind do so weakly or less than the wild type. For some of these results: Where a sequence is shown, tags or fusion partners need not be part of it.

The chains behind the UniProt entries cited, without tags or fusion partners. Where a name states a change or a piece, a line headed by the entry shows the natural chain unless it says otherwise. Residues count along the entry.
UniProt P47822: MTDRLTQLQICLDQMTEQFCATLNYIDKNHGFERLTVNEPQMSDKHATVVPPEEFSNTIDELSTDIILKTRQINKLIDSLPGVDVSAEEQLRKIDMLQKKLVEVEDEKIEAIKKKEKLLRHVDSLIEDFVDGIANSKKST
GST-Srb7Δ40: residues 41-140 of P47822
UniProt P52286: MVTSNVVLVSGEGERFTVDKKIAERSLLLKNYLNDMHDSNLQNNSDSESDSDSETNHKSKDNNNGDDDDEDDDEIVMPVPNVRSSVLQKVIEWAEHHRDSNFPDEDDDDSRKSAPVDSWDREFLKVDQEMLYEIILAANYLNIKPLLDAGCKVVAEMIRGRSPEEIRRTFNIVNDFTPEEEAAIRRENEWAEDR

T1: Snf1-HA3-H10 (S. cerevisiae) (UniProt P06782)
T1 sequence: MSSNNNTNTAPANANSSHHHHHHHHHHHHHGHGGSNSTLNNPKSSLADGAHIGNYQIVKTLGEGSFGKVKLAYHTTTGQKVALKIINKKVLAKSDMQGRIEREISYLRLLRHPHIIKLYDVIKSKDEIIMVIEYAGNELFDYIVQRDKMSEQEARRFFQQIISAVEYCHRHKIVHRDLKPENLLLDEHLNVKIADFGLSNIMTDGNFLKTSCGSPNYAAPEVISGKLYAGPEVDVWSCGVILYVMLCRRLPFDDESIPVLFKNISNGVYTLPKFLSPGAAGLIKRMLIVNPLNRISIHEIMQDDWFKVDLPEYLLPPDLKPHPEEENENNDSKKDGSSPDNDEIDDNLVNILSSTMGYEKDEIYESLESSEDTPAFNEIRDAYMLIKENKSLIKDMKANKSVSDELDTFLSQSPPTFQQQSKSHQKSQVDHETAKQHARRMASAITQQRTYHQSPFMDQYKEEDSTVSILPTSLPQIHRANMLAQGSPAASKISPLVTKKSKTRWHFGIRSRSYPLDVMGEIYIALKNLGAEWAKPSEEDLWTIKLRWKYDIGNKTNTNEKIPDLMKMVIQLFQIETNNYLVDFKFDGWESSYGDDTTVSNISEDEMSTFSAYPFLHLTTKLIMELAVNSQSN

B1: HA-Gal80 (protein, UniProt P04387 1-435)
chain: MDYNKRSSVSTVPNAAPIRVGFVGLNAAKGWAIKTHYPAILQLSSQFQITALYSPKIETSIATIQRLKLSNATAFPTLESFASSSTIDMIVIAIQVASHYEVVMPLLEFSKNNPNLKYLFVEWALACSLDQAESIYKAAAERGVQTIISLQGRKSPYILRAKELISQGYIGDINSIEIAGNGGWYGYERPVKSPKYIYEIGNGVDLVTTTFGHTIDILQYMTSSYFSRINAMVFNNIPEQELIDERGNRLGQRVPKTVPDHLLFQGTLLNGNVPVSCSFKGGKPTKKFTKNLVIDIHGTKGDLKLEGDAGFAEISNLVLYYSGTRANDFPLANGQQAPLDPGYDAGKEIMEVYHLRNYNAIVGNIHRLYQSISDFHFNTKKIPELPSQFVMQGFDFEGFPTLMDALILHRLIESVYKSNMMGSTLNVSNISHYSL

What was measured:
[1] = molecular target: Srb7 fused to Cub-RUra3 (S. cerevisiae) (UniProt P47822); assay: split reporter; Split-Ubiquitin assay in S. cerevisiae JD52: Srb7 fused to Cub-RUra3 and Nub-HA fused to Skp1 derivatives; lack of growth without uracil and growth on FOA
GST-Srb7 (S. cerevisiae) = GST-Srb7 (S. cerevisiae) (UniProt P47822); assay: pull-down; whole-cell extracts of JD52 cells expressing the GST-Srb7 derivative in place of endogenous Srb7 and Nub-HA-Skp1, incubated with glutathione beads; five washes; Western blot with anti-HA and anti-GST
[2] = molecular target: GST-Srb7Δ40 (S. cerevisiae) (UniProt P47822); assay: as above
[3] = molecular target: T1, Snf1-HA3-H10 (S. cerevisiae); assay: pull-down; Snf1-HA3-H10 pulled down with Ni-beads from extracts of BY4742ΔW cells expressing HA-Gal80; cells grown with glucose or induced with galactose for 1 h; Western blot with an HA antibody

| Molecule | binding [1] | binding (GST-Srb7 (S. cerevisiae)) | binding [2] | binding [3] |
| --- | --- | --- | --- | --- |
| Nub-HA-Skp1 (from UniProt P52286 1-194) | binds | binds | no binding | – |
| B1 | – | – | – | no binding |
